{
  "source": "ChEMBL document CHEMBL4888484",
  "about": "“Replenishing the malaria drug discovery pipeline: Screening and hit evaluation of the MMV Hit Generation Library 1 (HGL1) against asexual blood stage Plasmodium falciparum ,using a nano luciferase reporter read-out” (2022)",
  "note": "Out of some 150,000 compounds screened, about 540 (0.36%) showed an effect of 50% or more. The list shows a part of the results.",
  "data": [
    {"tested_on": "Plasmodium falciparum", "experiment": "Primary screen in NF54 nanoGlo assay, in single point, at 2uM, 72h; a lower Z score goes with more inhibition", "assay_type": "functional, Erythrocyte", "settings": "timepoint 72 hour", "units": {"% Inhibition": "%"}, "values": [
      {"compound": "O=C(C[C@H]1CCS(=O)(=O)C1)Nc1nc(-c2ccc(Br)cc2)cs1", "% Inhibition": 1, "Z score": -0.08},
      {"compound": "CCOc1ccc2c(C)c(C(=O)N3C[C@H](C4CC4)[C@@H](N)C3)oc2c1OCC", "% Inhibition": -4, "Z score": 0.74},
      {"compound": "Cc1ccc(N[C@H](C#N)c2c(C)[nH]c(=O)[nH]c2=O)cc1", "% Inhibition": 2, "Z score": -0.2},
      {"compound": "Cc1n[nH]c(C)c1CNCCc1cccnc1", "% Inhibition": -8, "Z score": 1.13},
      {"compound": "COc1cccc(N2CCC[C@H](NC(=O)c3ccnc(OC)n3)C2)c1", "% Inhibition": -11, "Z score": 1.56},
      {"compound": "Brc1ccc(-c2noc([C@H]3CCc4cncn4C3)n2)cc1", "% Inhibition": -7, "Z score": 0.7},
      {"compound": "O=C1C[C@H](N2CCN(S(=O)(=O)c3ccccc3F)CC2)C(=O)N1c1ccccc1Cl", "% Inhibition": 6, "Z score": -0.87},
      {"compound": "Cc1c(NC(=O)CNC[C@H]2CCCO2)cccc1OC1CCCC1", "% Inhibition": 1, "Z score": -0.17},
      {"compound": "COc1ccc(CCNC(=O)C(=O)NCC(C)C)cc1", "% Inhibition": -14, "Z score": 2.11},
      {"compound": "O=C(NCc1cocn1)C12CCC(C(F)(F)F)(CC1)CC2", "% Inhibition": -1, "Z score": 0.12},
      {"compound": "CC(=O)N1CCC(N(Cc2ccc3c(c2)CCO3)S(=O)(=O)c2ccc(C)cc2Cl)CC1", "% Inhibition": -11, "Z score": 1.5},
      {"compound": "Cc1noc(C)c1-c1noc(C(F)=C2CCCC2)n1", "% Inhibition": -8, "Z score": 0.79},
      {"compound": "Cc1cc(=O)c(OCC(=O)NCc2c(C)nn(C)c2C)c[nH]1", "% Inhibition": -10, "Z score": 1.48},
      {"compound": "Cc1ccn2cc(CN(C)Cc3snnc3C)nc2c1", "% Inhibition": -6, "Z score": 1.2},
      {"compound": "COc1cc(-c2nnc(NC(=O)Cc3cccc4ccccc34)o2)cc(OC)c1OC", "% Inhibition": -3, "Z score": 0.42},
      {"compound": "CCOc1nc(C)c(NC(=O)CC(C)C)c(C)n1", "% Inhibition": -4, "Z score": 0.55},
      {"compound": "O=C(CC(c1ccccc1)c1ccccc1)N(Cc1ccsc1)Cc1ccccn1", "% Inhibition": -2, "Z score": 0.27},
      {"compound": "O=C(O)Cn1nc(C2CC2)c2c(C(F)(F)F)cc(C3CC3)nc21", "% Inhibition": -34, "Z score": 3.95},
      {"compound": "O=C(COC[C@H]1CCCO1)NCCc1nccs1", "% Inhibition": -3, "Z score": 0.39},
      {"compound": "Cc1ncsc1C(=O)N1CC=C(n2c(=O)[nH]c3ccccc32)CC1", "% Inhibition": -7, "Z score": 1.34},
      {"compound": "O=C1Nc2ccccc2S(=O)(=O)N1Cc1csc(-c2ccoc2)n1", "% Inhibition": -12, "Z score": 1.66},
      {"compound": "Cn1c(-c2n[nH]c3c2CCCC3)nnc1N1CCCC2(CC2)C1", "% Inhibition": 11, "Z score": -1.98},
      {"compound": "Cc1cc(Cl)c(C(=O)NC(C)(CO)CO)cc1C", "% Inhibition": 3, "Z score": -0.51},
      {"compound": "CCc1[nH]c(Cc2ccccc2)cc1C(=O)O", "% Inhibition": -6, "Z score": 0.94},
      {"compound": "Cc1ccc(NS(=O)(=O)c2ccc3c(c2)C(C)(C)CN3CC(=O)N2CCCC2)cc1C", "% Inhibition": -7, "Z score": 1.41},
      {"compound": "COC(=O)c1cncc(CNC(=O)CCOc2ccc(C)c(C)c2)c1", "% Inhibition": -6, "Z score": 0.91},
      {"compound": "COCCN1CN(C(=O)N[C@@H](C2CCCC2)C(F)(F)F)CC1=O", "% Inhibition": -11, "Z score": 1.91},
      {"compound": "CCN1CCN(C(=O)CN2C(=O)COc3ccc(C(=O)N4CCCC4)cc32)CC1", "% Inhibition": 15, "Z score": -2.01},
      {"compound": "CC(C)c1cccc(OCC(=O)c2ccc3c(c2)N(CC(=O)N2CCCC2)C(=O)CO3)c1", "% Inhibition": 10, "Z score": -1.22},
      {"compound": "CC(C)n1c(=O)c(NCc2cccc(C(F)(F)F)c2)nc2ccncc21", "% Inhibition": 24, "Z score": -2.33},
      {"compound": "O=C(NCC[C@H](O)C1CC1)Nc1cccs1", "% Inhibition": -15, "Z score": 2.17},
      {"compound": "NC(=O)C1(NC(=O)c2cc(-c3ccc(O)cc3)n[nH]2)CCCC1", "% Inhibition": -7, "Z score": 1.24},
      {"compound": "CCCn1nc(COc2ccc(F)cc2)nc1[C@@H](N)Cc1c[nH]cn1", "% Inhibition": 2, "Z score": -0.36},
      {"compound": "O=C(c1ccno1)N1CCC(c2nnc(-c3ccco3)o2)CC1", "% Inhibition": -16, "Z score": 2.81},
      {"compound": "CCOC1CC2(CCN(Cc3ccc4cn[nH]c4c3)C2)C1", "note": "(stereo unspecified)", "% Inhibition": -8, "Z score": 0.81},
      {"compound": "CCNc1ccnc(NCc2ccc3[nH]c(C)c(C)c3c2)n1", "% Inhibition": -8, "Z score": 0.83},
      {"compound": "COc1ccccc1CN1COc2cc3c(cc2C1)OCO3", "% Inhibition": 56, "Z score": -4.75},
      {"compound": "Cc1nccn1-c1ccc(N2CCN(S(=O)(=O)CCOc3ccc(F)cc3)CC2)nn1", "% Inhibition": -19, "Z score": 3.7},
      {"compound": "Cn1ccnc1CS(=O)(=O)c1ccccc1", "% Inhibition": -6, "Z score": 0.76},
      {"compound": "c1cc(-c2nc(-c3cnccn3)no2)nc(-n2cccn2)c1", "% Inhibition": 16, "Z score": -1.86},
      {"compound": "Cc1cnn(CCNC(=O)c2cccn2C2CC2)c1", "% Inhibition": -15, "Z score": 1.93},
      {"compound": "O=C(C#Cc1ccccc1)NC1CCN(CC2(O)CCCCC2)CC1", "% Inhibition": 2, "Z score": -0.2},
      {"compound": "N#CCCN(Cc1csnn1)CC1CC1", "% Inhibition": -2, "Z score": 0.22}
    ]}
  ]
}
